Measurements taken from the supplement of paper PMC9446081.
The whole screen tested about 39,000 compounds, of which about 220 (0.56%) showed activity. Some of the results follow.

Each molecule was assayed on Escherichia coli K-12 BW25113 (assay: relative growth (OD600 normalised to plate interquartile mean) (fraction); higher = less growth inhibition, active = 0.2 or less). Settings: 50 µM; LB; incubation time: overnight (16-24 h).
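Further: static incubation at 37 °C against the wild-type strain, values averaged over two biological replicates.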

Row | Compound | relative growth
1 | COc1ccc(NC(=O)Nc2ccc3c(c2)C(=O)N([C@@H](C)CO)C[C@H](C)[C@@H](CN(C)C(=O)Nc2ccc(C(F)(F)F)cc2)O3)cc1 | inactive: 1
2 | Cc1cc(C(=O)Nc2cccc3c2O[C@H](CN(C)Cc2ccc(Oc4ccccc4)cc2)[C@@H](C)CN([C@H](C)CO)C3=O)n(C)n1 | inactive: 0.968
3 | C[C@H](CO)N1C[C@H](C)[C@@H](CN(C)C(=O)c2ccccc2)OCCCC[C@H](C)Oc2ccc(NC(=O)c3ccccc3)cc2C1=O | inactive: 1.02
4 | CC(C)CC#Cc1ccc2c(c1)O[C@@H](CN(C)C(=O)Cc1cccnc1)[C@H](C)CN([C@H](C)CO)S2(=O)=O | inactive: 0.938
5 | C[C@@H]1CCCCO[C@H](CN(C)Cc2ccc(C(=O)Nc3ccccc3N)cc2)[C@@H](C)CN([C@H](C)CO)C(=O)c2cc(NS(=O)(=O)c3ccccc3)ccc2O1 | inactive: 1.01
6 | Cc1ccc(-c2cnc3c(c2)C(=O)N([C@@H](C)CO)C[C@H](C)[C@@H](CN(C)C(=O)Cc2ccncc2)O3)cc1 | inactive: 1
7 | COc1ccc(CN(C)C[C@@H]2OCCCC[C@H](C)Oc3ccc(NC(=O)Nc4ccccc4)cc3C(=O)N([C@@H](C)CO)C[C@H]2C)cc1 | inactive: 1.04
8 | C[C@@H]1CN([C@@H](C)CO)C(=O)c2cccc(NC(=O)Nc3ccc4c(c3)OCO4)c2O[C@@H]1CN(C)S(=O)(=O)c1cn(C)cn1 | inactive: 1.01
9 | C[C@H](C(=O)N(C)C[C@@H]1OCc2ccccc2-c2c(n(C)c3ccccc23)C(=O)N([C@@H](C)CO)C[C@H]1C)c1ccccc1 | inactive: 0.991
10 | C[C@H](CO)N1C[C@H](C)[C@@H](CN(C)S(=O)(=O)c2ccccc2F)Oc2ncc(C#Cc3ccccc3F)cc2C1=O | inactive: 1.03
11 | Cc1noc(C)c1NC(=O)Nc1ccc2c(c1)CC(=O)N([C@H](C)CO)C[C@@H](C)[C@@H](CN(C)S(C)(=O)=O)O2 | inactive: 1.01
12 | COc1ccc2c3c(n(c2c1)C)[C@@H](CO)N(Cc1cc(cc(c1)OC)OC)C[C@]13CCN(CC1)C(=O)CN1CCOCC1 | inactive: 0.861
13 | COc1ccc(S(=O)(=O)N(C)C[C@@H]2Oc3ccc(NS(=O)(=O)c4cccs4)cc3C(=O)N([C@@H](C)CO)C[C@@H]2C)cc1 | inactive: 1.01
14 | C[C@@H]1CCCCO[C@H](CN(C)C(=O)Nc2ccccc2)[C@@H](C)CN([C@H](C)CO)C(=O)c2cc(NC(=O)C3CCCCC3)ccc2O1 | inactive: 1.01
15 | C[C@H](CO)N1C[C@H](C)[C@H](CN(C)Cc2ccc3c(c2)OCO3)Oc2ccc(NS(=O)(=O)c3ccccc3)cc2CC1=O | inactive: 1.01
16 | O=C(CN1CCOCC1)NCC[C@H]1CC[C@@H](NS(=O)(=O)c2ccc(Cl)cc2)[C@@H](CO)O1 | inactive: 0.988
17 | C[C@@H]1CCCCO[C@@H](CN(C)C(=O)C2CCCCC2)[C@@H](C)CN([C@H](C)CO)C(=O)c2cc(NC(=O)CCCCCC(=O)Nc3ccccc3N)ccc2O1 | inactive: 0.965
18 | O=C(C[C@H]1C=C[C@H](NC(=O)C2CCC2)[C@H](CO)O1)NCCCN1CCOCC1 | inactive: 1.04
19 | Cc1noc(C)c1S(=O)(=O)Nc1ccc2c(c1)C(=O)N([C@@H](C)CO)C[C@H](C)[C@H](CN(C)Cc1ccccc1)OCCCC[C@@H](C)O2 | inactive: 1.01
20 | C[C@@H]1CN([C@H](C)CO)C(=O)c2cc(NC(=O)Nc3cccc4ccccc34)ccc2O[C@@H]1CN(C)CC1CCCCC1 | inactive: 1

Row | Compound | relative growth
21 | COc1ccc(NC(=O)N(C)C[C@H]2OCCCC[C@@H](C)Oc3ccc(NS(=O)(=O)c4ccc(Cl)cc4)cc3C(=O)N([C@H](C)CO)C[C@H]2C)cc1 | inactive: 1
22 | COc1ccc(NC(=O)N(C)C[C@H]2Oc3ncc(C#CCN(C)C)cc3C(=O)N([C@H](C)CO)C[C@@H]2C)cc1 | inactive: 0.978
23 | COCC(=O)Nc1ccc2c(c1)OC[C@@H](C)N(C(=O)Nc1ccccc1F)C[C@@H](C)[C@H](OC)CN(C)C2=O | inactive: 1.02
24 | C[C@@H]1CN([C@H](C)CO)C(=O)c2cccc(NC(=O)c3ccc(-c4nccs4)cc3)c2O[C@H]1CN(C)Cc1ccc(C(F)(F)F)cc1 | inactive: 1
25 | C[C@@H]1CN([C@H](C)CO)C(=O)Cc2cc(NC(=O)Cn3cnnn3)ccc2O[C@H]1CN(C)S(=O)(=O)c1ccc(F)cc1 | inactive: 1.01
26 | COCC(=O)Nc1ccc2c(c1)OC[C@@H](C)N(C(=O)c1ccccc1F)C[C@H](C)[C@H](OC)CN(C)C2=O | inactive: 0.969
27 | CC(C)c1cn(CC[C@@H]2CC[C@H](N)[C@@H](CO)O2)nn1 | inactive: 0.994
28 | CO[C@@H](C(=O)N(C)C[C@H]1OCc2ccccc2-c2c(n(C)c3ccccc23)C(=O)N([C@H](C)CO)C[C@H]1C)c1ccccc1 | inactive: 1.01
29 | CC(=O)Nc1nnc2n1CCS2 | inactive: 1.02
30 | CCCNC(=O)[C@H]1[C@H](CO)[C@H]2Cn3c(ccc(-c4ccccc4OC)c3=O)[C@H]2N1S(C)(=O)=O | inactive: 1.01
31 | COc1ccc(S(=O)(=O)N(C)C[C@H]2Oc3ccc(NC(=O)CCN4CCOCC4)cc3C(=O)N([C@@H](C)CO)C[C@@H]2C)cc1 | inactive: 0.996
32 | C[C@H](CO)N1C[C@H](C)[C@@H](CN(C)C(=O)Nc2cccc3ccccc23)Oc2ccc(NC(=O)Nc3ccc(F)cc3)cc2CC1=O | inactive: 0.997
33 | CCc1cc(C(N)=O)c(N)s1 | inactive: 0.979
34 | C[C@H]1CN([C@@H](C)CO)C(=O)c2cccc(NC(=O)Nc3ccc(C(F)(F)F)cc3)c2O[C@@H]1CN(C)Cc1ccc(C(F)(F)F)cc1 | inactive: 0.91
35 | CN1C(=O)c2cc(NC(=O)C3CCCC3)ccc2OC[C@H]2O[C@H](CC(=O)NCCc3ccncc3)CC[C@H]21 | inactive: 0.985
36 | O=C(C[C@@H]1CC[C@@H](NC(=O)c2cnccn2)[C@@H](CO)O1)NCc1ccccc1F | inactive: 1.05
37 | CS(=O)(=O)NC[C@@]12COC[C@H]1CN(C(=O)COC1CCCC1)C2 | inactive: 0.984
38 | COc1ccc(CN(C)C[C@@H]2OCCCC[C@@H](C)Oc3ccc(NS(=O)(=O)c4ccccc4)cc3C(=O)N([C@H](C)CO)C[C@H]2C)cc1 | inactive: 1.03
39 | C[C@@H]1CCCCO[C@H](CN(C)S(=O)(=O)c2ccc(Cl)cc2)[C@@H](C)CN([C@H](C)CO)C(=O)c2cc(NC(=O)CCC(F)(F)F)ccc2O1 | inactive: 1.02
40 | C[C@H]1CCCCO[C@H](CN(C)C(=O)Nc2ccc(C(F)(F)F)cc2)[C@@H](C)CN([C@@H](C)CO)C(=O)c2cc(NC(=O)NC3CCCCC3)ccc2O1 | inactive: 1.01

Row | Compound | relative growth
41 | O=C(C[C@@H]1C[C@@H]2c3cc(NC(=O)C4CCOCC4)ccc3O[C@@H]2[C@H](CO)O1)NCc1cc(F)ccc1F | inactive: 0.955
42 | CN1C(=O)[C@@H]2[C@H](N=CN2CCCO)N(C)C1=O | inactive: 0.982
43 | CCCNC(=O)N1C[C@@H](O)COC[C@@H]2O[C@H](CC(=O)N3CCN(C)CC3)CC[C@H]21 | inactive: 1.01
44 | C[C@@H]1CN([C@H](C)CO)C(=O)Cc2cc(NC(=O)C3CC3)ccc2O[C@H]1CN(C)Cc1ccc(C(=O)O)cc1 | inactive: 0.972
45 | C[C@@H]1CN([C@@H](C)CO)C(=O)c2cccc(NS(=O)(=O)c3cccs3)c2O[C@H]1CN(C)S(=O)(=O)c1ccccc1 | inactive: 0.991
46 | C[C@@H]1CCCCO[C@H](CN(C)S(=O)(=O)c2ccc(F)cc2)[C@H](C)CN([C@H](C)CO)C(=O)c2cc(NC(=O)Nc3ccc(F)cc3)ccc2O1 | inactive: 1
47 | C[C@H](CO)N1C[C@H](C)[C@H](CN(C)S(=O)(=O)c2cn(C)cn2)Oc2ccc(NC(=O)C3CCCCC3)cc2CC1=O | inactive: 0.989
48 | C[C@@H]1CCCCO[C@H](CN(C)C(=O)Nc2ccccc2)[C@H](C)CN([C@@H](C)CO)C(=O)c2cc(NC(=O)Nc3ccc(C(F)(F)F)cc3)ccc2O1 | inactive: 1.03
49 | COc1ccc(NC(=O)Nc2ccc3c(c2)C(=O)N([C@@H](C)CO)C[C@H](C)[C@H](CN(C)S(=O)(=O)c2ccc(C)cc2)OCCCC[C@H](C)O3)cc1 | inactive: 1.01
50 | O=C(C[C@@H]1CC[C@@H]2[C@H](COC[C@@H](O)CN2S(=O)(=O)c2cccc(Cl)c2)O1)NC1Cc2ccccc2C1 | inactive: 0.985
51 | Nc1cc(-c2ccncc2)c[nH]c1=O | inactive: 1
52 | COc1ccc(NC(=O)N(C)C[C@H]2OCc3ccccc3-c3c(n(C)c4ccccc34)C(=O)N([C@H](C)CO)C[C@H]2C)c(OC)c1 | inactive: 0.995
53 | C[C@H](CO)N1C[C@H](C)[C@H](CN(C)C(=O)Nc2cccc3ccccc23)Oc2ccc(NS(=O)(=O)c3ccc(Cl)cc3)cc2C1=O | inactive: 1.01
54 | C[C@@H]1CCCCO[C@H](CN(C)S(=O)(=O)c2ccccc2)[C@H](C)CN([C@@H](C)CO)C(=O)c2cc(NC(=O)c3ccccc3)ccc2O1 | inactive: 1.01
55 | C[C@H](O)[C@H](O)[C@H]1CNc2[nH]c(N)nc(=O)c2N1 | inactive: 1
56 | COC(=O)[C@H](Cc1ccc(-n2cc(CCC(=O)NO)nn2)cc1)N1CC2=C[C@H]([C@@H](O)Cc3ccccc3)n3c(=O)n(C)c(=O)n3[C@@H]2[C@@H](C2CC2)O1 | inactive: 1
57 | Fc1cccc(-c2csc(COc3ccccc3Cl)n2)c1 | inactive: 1.02
58 | COCC(=O)Nc1ccc2c(c1)C(=O)N(C)C[C@@H](OC)[C@H](C)CN(C(=O)CN1CCOCC1)[C@H](C)CO2 | inactive: 1.01
59 | COc1ccc(S(=O)(=O)Nc2ccc3c(c2)CC(=O)N([C@H](C)CO)C[C@H](C)[C@H](CN(C)CC2CC2)O3)cc1 | inactive: 0.994
